Source: the supplement of paper PMC6531468
Some of the results follow. These are enrichments in a pooled selection; single values are uncertain. Each score is taken over the longer molecules that contain the sequence shown.

Key:
Assay in all cases: 6-mer SELEX enrichment z-score vs GST control; IMP3 is the RNA-binding protein IGF2BP3; higher = more enriched by binding
IMP3 KH1-4 = settings: construct: KH1-4 (164-579); SELEX round: R4
Procedure: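 SELEX-seq with GST-tagged IMP3 KH1-4 (Pro164-Lys579) and an N40 RNA pool, round 4. 6-mer z-score of sequence-tag enrichment normalised to the corresponding GST SELEX round; RNA k-mers written as DNA (T for U).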

IMP3 RRM1-2 = settings: construct: RRM1-2 (1-163); SELEX round: R2
IMP3 RRM1-2, sequence (chain, as listed by the source): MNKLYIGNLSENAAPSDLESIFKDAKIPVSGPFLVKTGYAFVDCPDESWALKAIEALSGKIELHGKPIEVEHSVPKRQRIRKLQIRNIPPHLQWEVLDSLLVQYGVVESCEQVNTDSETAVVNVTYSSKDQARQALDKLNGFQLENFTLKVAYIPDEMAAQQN
Procedure: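 SELEX-seq with GST-tagged IMP3 RRM1-2 (Met1-Asn163) and an N40 RNA pool, round 2. 6-mer enrichment z-score normalised to GST SELEX. RNA written as DNA (T = U).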

IMP3 full-length = IMP3 full-length (UniProt O00425); settings: construct: FL IMP3 (1-579); SELEX round: R4
UniProt O00425, sequence (O00425 whole entry): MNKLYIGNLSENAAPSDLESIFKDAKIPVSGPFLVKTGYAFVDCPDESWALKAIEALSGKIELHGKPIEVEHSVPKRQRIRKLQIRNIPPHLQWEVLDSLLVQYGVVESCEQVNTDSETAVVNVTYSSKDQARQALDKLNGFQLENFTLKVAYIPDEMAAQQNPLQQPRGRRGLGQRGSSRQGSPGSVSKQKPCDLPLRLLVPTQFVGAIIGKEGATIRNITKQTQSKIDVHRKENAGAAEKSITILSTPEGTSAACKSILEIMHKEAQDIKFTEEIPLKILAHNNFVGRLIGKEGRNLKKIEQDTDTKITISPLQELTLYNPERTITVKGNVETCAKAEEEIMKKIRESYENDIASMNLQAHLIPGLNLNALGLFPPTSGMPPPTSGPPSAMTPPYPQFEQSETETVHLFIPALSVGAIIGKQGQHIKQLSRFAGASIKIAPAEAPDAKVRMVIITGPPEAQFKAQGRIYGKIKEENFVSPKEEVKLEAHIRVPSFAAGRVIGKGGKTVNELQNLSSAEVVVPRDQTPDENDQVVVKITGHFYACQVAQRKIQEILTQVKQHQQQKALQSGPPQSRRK
Procedure: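 SELEX-seq with GST-tagged full-length IMP3 and an N40 RNA pool, round 4. Each 6-mer is scored as an enrichment z-score of sequence tags containing it, normalised to the matching GST SELEX round. RNA written as DNA (T = U).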

IMP3 KH3-4 = settings: construct: KH3-4 (377-579); SELEX round: R4
IMP3 KH3-4, sequence (chain, as listed by the source): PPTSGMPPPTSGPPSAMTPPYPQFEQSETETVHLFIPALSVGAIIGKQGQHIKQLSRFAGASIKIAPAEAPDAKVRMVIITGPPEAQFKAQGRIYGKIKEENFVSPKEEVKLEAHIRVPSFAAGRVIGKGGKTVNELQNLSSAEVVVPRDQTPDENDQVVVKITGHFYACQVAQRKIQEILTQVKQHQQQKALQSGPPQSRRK
Procedure: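 SELEX-seq with GST-tagged IMP3 KH3-4 (Pro377-Lys579) and an N40 RNA pool, round 4. 6-mer z-score of sequence-tag enrichment normalised to the corresponding GST SELEX round; RNA k-mers written as DNA (T for U).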

IMP3 KH1-4, sequence (chain, as listed by the source): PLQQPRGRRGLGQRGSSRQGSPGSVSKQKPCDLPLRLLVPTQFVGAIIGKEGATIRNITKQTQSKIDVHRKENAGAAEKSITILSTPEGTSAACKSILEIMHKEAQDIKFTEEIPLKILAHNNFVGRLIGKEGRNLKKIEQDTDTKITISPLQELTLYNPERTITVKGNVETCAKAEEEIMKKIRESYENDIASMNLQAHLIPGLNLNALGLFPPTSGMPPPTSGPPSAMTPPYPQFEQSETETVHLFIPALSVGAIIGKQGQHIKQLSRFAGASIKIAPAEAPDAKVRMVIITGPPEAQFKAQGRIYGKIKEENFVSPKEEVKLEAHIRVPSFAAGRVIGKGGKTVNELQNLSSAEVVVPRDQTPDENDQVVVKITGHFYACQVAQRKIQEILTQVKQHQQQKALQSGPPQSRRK

Row | Sequence | 6-mer SELEX enrichment z-score (IMP3 KH1-4) | 6-mer SELEX enrichment z-score (IMP3 RRM1-2) | 6-mer SELEX enrichment z-score (IMP3 full-length) | 6-mer SELEX enrichment z-score (IMP3 KH3-4)
1 | CTATTG | 0.346 | 0.184 | -0.09 | 0.39
2 | CGTTTA | -0.186 | 0.11 | -0.196 | -0.004
3 | TCTAAG | -0.23 | -0.134 | -0.346 | -0.123
4 | TGACTG | 0.164 | -0.592 | -0.522 | 0.025
5 | TAAGCT | -0.08 | -0.082 | -0.309 | 0.09
6 | GTAGAG | -0.445 | -0.148 | -0.264 | -0.234
7 | CGGTGC | -0.447 | 0.077 | 0.104 | -0.434
8 | ATGAGG | 1.17 | -0.191 | 0.422 | 1.38
9 | ATCGAT | -0.021 | -0.158 | -0.022 | 0.036
10 | GATACG | 0.338 | -0.616 | -0.122 | 0.257
11 | TTCCTA | 0.521 | 0.029 | -0.139 | 0.423
12 | GTATTC | -0.352 | 0.313 | -0.2 | -0.241
13 | TAGGCG | 0.104 | 0.357 | 0.439 | 0.398
14 | TTTTAG | 0.487 | 0.281 | 0.157 | 0.871
15 | GCAGAC | -0.137 | 0.141 | 0.649 | -0.34
16 | AAGGAG | 0.565 | -0.855 | -0.228 | 0.75
17 | CCACAG | -0.479 | 0.59 | 0.479 | -1.01
18 | GGGGAT | 0.825 | 0.014 | 0.417 | 0.977
19 | GACTCT | -0.477 | -0.226 | -0.401 | -0.442
20 | GTGTTT | -0.17 | 0.461 | -0.114 | 0.071
21 | ATTATA | 1.9 | 0.155 | 0.489 | 2.83
22 | AGTGCC | -0.978 | -0.187 | -0.359 | -1.08
23 | GGGCTC | -0.064 | 0.41 | 0.559 | 0.108
24 | GGGTCA | -0.019 | 0.196 | 0.507 | 0.204
